In the supplement of paper PMC7826260:
This is one part of the list. One pool of 16,384 single-stranded DNAs met each Rep nickase domain in vitro (1 h at 37 °C, 3 µM enzyme); the outer parts of the 90-letter strands are left off. A value is the log2 ratio of uncut reads to the pool without enzyme; more negative means more cut, near 0 not cut, and no call is made. Because reads are shares of a total, they shift together, so uncut sequences can rise above 0 when many others are cut.

Key:
Assay in all cases: uncleaved DNA left, log2 of reads against the no-enzyme library (log2 ratio); higher = less cleavage (more negative = more Rep cleavage of the k-mer); sequences stand for … in CTCGTCCG…ACCGGAGA
[1] = system: T1, Rep nickase domain of Muscovy duck circovirus
T1 sequence (residues 1-111 of Rep, tag left off): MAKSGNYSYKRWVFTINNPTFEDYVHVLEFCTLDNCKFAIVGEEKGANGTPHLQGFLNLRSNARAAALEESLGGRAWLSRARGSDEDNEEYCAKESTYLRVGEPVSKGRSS
Procedure: (§1)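 A pool of 90-nt single-stranded DNAs with seven random bases just before the constant AC of the nick site (name = the seven bases) was cut by 3 µM recombinant His6-SUMO-tagged Rep nickase domain (300 nM DNA, 50 mM HEPES pH 8.0, 50 mM NaCl, 1 mM MnCl2, 1 h, 37 °C, three replicates). Uncut DNA was amplified and sequenced.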

[2] = system: T2, Rep nickase domain of banana bunchy top virus
T2 sequence (residues 1-94 of Rep, tag left off): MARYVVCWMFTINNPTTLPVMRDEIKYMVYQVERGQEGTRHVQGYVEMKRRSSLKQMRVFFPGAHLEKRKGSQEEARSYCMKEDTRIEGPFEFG
Procedure: as §1

[3] = system: T3, Rep nickase domain of cabbage leaf curl virus
T3 sequence (residues 1-116 of Rep, tag left off): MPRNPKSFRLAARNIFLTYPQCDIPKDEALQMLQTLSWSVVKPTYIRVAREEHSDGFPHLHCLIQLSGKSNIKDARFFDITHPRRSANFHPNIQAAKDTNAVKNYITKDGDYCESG
Procedure: as §1

[4] = system: T4, Rep nickase domain of chickpea chlorotic dwarf virus
T4 sequence (residues 1-124 of Rep, tag left off): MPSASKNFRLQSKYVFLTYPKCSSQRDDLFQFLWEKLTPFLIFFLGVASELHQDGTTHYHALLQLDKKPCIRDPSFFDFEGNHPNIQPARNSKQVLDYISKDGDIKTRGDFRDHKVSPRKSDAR
Procedure: as §1

[5] = system: T5, Rep nickase domain of faba bean necrotic yellows virus
T5 sequence (residues 1-98 of Rep, tag left off): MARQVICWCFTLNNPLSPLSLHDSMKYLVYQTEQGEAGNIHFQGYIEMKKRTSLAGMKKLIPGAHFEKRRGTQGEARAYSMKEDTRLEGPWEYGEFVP
Procedure: as §1

[6] = system: T6, Rep nickase domain of maize striate mosaic virus
T6 sequence (residues 1-117 of Rep, tag left off): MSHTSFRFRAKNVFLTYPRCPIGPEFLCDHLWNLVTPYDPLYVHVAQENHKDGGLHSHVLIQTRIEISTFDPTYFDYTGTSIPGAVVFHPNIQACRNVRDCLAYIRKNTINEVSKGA
Procedure: as §1

[7] = system: T7, Rep nickase domain of porcine circovirus 2
T7 sequence (residues 2-116 of Rep, tag left off): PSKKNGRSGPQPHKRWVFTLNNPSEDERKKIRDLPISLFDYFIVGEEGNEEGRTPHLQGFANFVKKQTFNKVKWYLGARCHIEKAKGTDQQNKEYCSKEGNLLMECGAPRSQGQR
Procedure: as §1

[8] = system: T8, Rep nickase domain of tomato yellow leaf curl virus
T8 sequence (residues 1-136 of Rep, tag left off): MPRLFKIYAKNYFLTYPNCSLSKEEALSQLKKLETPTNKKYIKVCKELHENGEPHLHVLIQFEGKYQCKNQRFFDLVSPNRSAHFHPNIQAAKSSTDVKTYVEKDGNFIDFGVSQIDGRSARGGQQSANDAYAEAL
Procedure: as §1

[9] = system: T9, Rep nickase domain of wheat dwarf virus
T9 sequence (residues 1-137 of Rep, tag left off): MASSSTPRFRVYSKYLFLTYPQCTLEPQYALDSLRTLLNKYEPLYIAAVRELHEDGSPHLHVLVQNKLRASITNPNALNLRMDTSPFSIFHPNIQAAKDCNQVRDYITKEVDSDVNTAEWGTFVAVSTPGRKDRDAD
Procedure: as §1

Sequence | uncleaved DNA left (log2) [1] | uncleaved DNA left (log2) [2] | uncleaved DNA left (log2) [3] | uncleaved DNA left (log2) [4] | uncleaved DNA left (log2) [5] | uncleaved DNA left (log2) [6] | uncleaved DNA left (log2) [7] | uncleaved DNA left (log2) [8] | uncleaved DNA left (log2) [9]
TATATGA | 0.0129 | 0.00929 | 0.0655 | -0.109 | 0.0596 | -0.651 | 0.033 | -0.0183 | 0.0477
TCTCGTA | -0.0951 | -0.0333 | -0.0792 | -0.879 | 0.0275 | -0.757 | -0.13 | 0.0169 | -0.116
CAGGTTG | 0.0909 | -0.107 | -0.0402 | 0.426 | -0.116 | 0.131 | 0.19 | -0.138 | -0.184
ACTTTTA | -0.158 | -0.145 | -0.348 | -1.84 | 0.0955 | -0.749 | -0.129 | -0.121 | -0.0221
CTAGTCT | -0.0824 | -0.0588 | -0.289 | -2.08 | -0.00992 | -0.892 | -0.137 | -0.174 | -0.175
CACAAGG | 0.101 | 0.0641 | 0.329 | 0.962 | 0.124 | 0.337 | 0.208 | 0.0241 | 0.135
CTACGCA | -0.15 | -0.055 | -0.322 | -0.715 | 0.0314 | -0.824 | 0.00352 | -0.0621 | 0.0149
CGAGGTC | 0.197 | 0.198 | 0.364 | 0.564 | 0.0636 | 0.377 | 0.0258 | 0.106 | 0.14
TGACCAA | 0.0357 | 0.046 | 0.241 | 0.396 | -0.029 | 0.348 | -0.207 | 0.0583 | 0.156
GAGATAA | 0.106 | 0.157 | 0.486 | 1.2 | 0.0581 | 1.56 | 0.0504 | 0.244 | 0.0717
ATACAAT | 0.0043 | 0.0315 | -0.169 | -1.63 | 0.00454 | -0.446 | -0.0285 | -0.0159 | -0.0275
ACTATCC | -0.156 | -0.0463 | -0.234 | -0.143 | -0.0545 | -0.587 | -0.0204 | -0.24 | -0.0639
CCAATCC | 0.00301 | 0.0827 | -0.0746 | -0.101 | 0.00124 | -0.39 | 0.063 | -0.00474 | -0.0717
CTTTGCA | 0.0103 | -0.0443 | -0.783 | -0.891 | -0.078 | -1.18 | -0.0365 | 0.101 | -0.0193
TTTCTGG | 0.0644 | -0.0473 | 0.371 | 0.818 | 0.0733 | 1.03 | 0.0702 | 0.00217 | -0.0323
TATACGG | 0.101 | 0.122 | 0.637 | 1.69 | 0.123 | 2.22 | 0.209 | 0.0349 | 0.209
GCAGCAA | -0.116 | -0.0841 | -0.154 | 0.0891 | -0.22 | -0.485 | -0.00517 | -0.0319 | -0.0697
TTTGTGG | -0.0616 | -0.146 | -0.0225 | 0.113 | -0.102 | -0.238 | 0.0078 | -0.206 | -0.0801
AGTTTAA | -0.00892 | 0.184 | 0.139 | -0.339 | 0.0799 | 0.000799 | -0.451 | 0.033 | 0.0765
ACATGAC | -0.0872 | 0.017 | -0.293 | -0.0319 | 0.0256 | -0.744 | 0.158 | -0.08 | -0.0198
TGAGTAG | 0.0732 | -0.0237 | -0.528 | -0.585 | 0.0297 | -1.21 | 0.233 | 0.0779 | 0.0275
CGAACGA | -0.0691 | -0.00931 | -0.134 | -0.103 | -0.0646 | -0.468 | 0.0177 | -0.137 | -0.0586
TTTTTGA | -0.0467 | -0.088 | 0.028 | -0.0908 | -0.00958 | -0.543 | -0.0626 | -0.0155 | 0.0121
AATATGA | 0.0964 | 0.119 | 0.133 | 0.0255 | 0.0445 | -0.755 | 0.0484 | 0.0847 | 0.0932
GGCAGGG | 0.0447 | 0.0549 | 0.227 | 0.659 | 0.0737 | 0.613 | 0.154 | -0.013 | 0.101
TTTCTAA | 0.0411 | 0.119 | 0.265 | 0.225 | 0.0106 | 0.431 | 0.0356 | 0.124 | 0.147
ATATCCT | -1.26 | 0.0872 | -0.297 | -2.32 | 0.12 | -0.455 | -1.85 | -0.103 | -0.0706
CTGTAAA | 0.0885 | 0.133 | -0.133 | -0.146 | 0.0933 | -0.669 | 0.0832 | 0.214 | 0.000272
CCGTGAC | 0.127 | 0.122 | 0.372 | 0.615 | 0.154 | 0.558 | 0.118 | 0.000702 | -0.159
CCCCACA | -0.105 | -0.0158 | -0.0257 | -1.43 | -0.134 | -0.603 | -0.137 | -0.17 | -0.0348
